# According to article PMC3897701:
# The chains behind the UniProt entries cited, without tags or fusion partners. Where a name states a change or a piece, a line headed by the entry shows the natural chain unless it says otherwise. Residues count along the entry.
# UniProt P41273, residues 50-254: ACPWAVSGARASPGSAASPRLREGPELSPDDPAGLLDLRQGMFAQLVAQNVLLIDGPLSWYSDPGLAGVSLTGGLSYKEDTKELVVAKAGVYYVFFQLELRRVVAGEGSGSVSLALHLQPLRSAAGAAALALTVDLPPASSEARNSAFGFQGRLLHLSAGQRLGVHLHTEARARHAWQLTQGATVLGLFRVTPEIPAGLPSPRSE
# UniProt Q07011: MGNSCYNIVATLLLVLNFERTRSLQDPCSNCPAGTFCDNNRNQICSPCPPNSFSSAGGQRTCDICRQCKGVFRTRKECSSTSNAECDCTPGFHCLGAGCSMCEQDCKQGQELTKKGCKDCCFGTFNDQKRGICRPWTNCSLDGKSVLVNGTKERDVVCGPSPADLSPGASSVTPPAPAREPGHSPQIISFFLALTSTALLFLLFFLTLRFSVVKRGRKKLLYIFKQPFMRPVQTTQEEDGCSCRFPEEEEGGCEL
# UniProt P41274, residues 104-309: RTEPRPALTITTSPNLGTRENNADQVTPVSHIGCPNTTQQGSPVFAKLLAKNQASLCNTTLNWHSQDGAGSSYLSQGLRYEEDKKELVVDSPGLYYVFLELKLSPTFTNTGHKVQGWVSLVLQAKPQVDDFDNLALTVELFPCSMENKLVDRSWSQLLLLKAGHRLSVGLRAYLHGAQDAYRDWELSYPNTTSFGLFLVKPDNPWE
# These are yes or no findings as the source states them, for the method shown. Some entries that bind do so weakly or less than the wild type. For some assays here: Tags and fused reporters may be left off the sequences shown.
# Assays:
# [1] = target: hCD137L-mFc (human CD137L extracellular domain and mouse IgG-Fc fusion protein) (human) (UniProt P41273); test: ELISA; purified hCD137L-mFc coated at 1 µg/ml; purified hE3 added at 0.2 to 10 µg/ml; goat anti-human IgG-HRP; both purified
# [2] = target: hCD137L-mFc (human CD137L extracellular domain and mouse IgG-Fc fusion protein) (human) (UniProt P41273); test: ELISA; purified hCD137L-mFc coated at 1 µg/ml; expression supernatants of human or mouse CD137-hFc fragments added; goat anti-human IgG-HRP; positive if P/N>2.1; only the target purified
# [3] = target: hE (full-length human CD137 extracellular domain, human IgG-Fc fusion protein) (human) (UniProt Q07011); test: far-Western, overlay or dot blot; mE and hE run on 10% SDS-PAGE without 2-ME, blotted, probed with hCD137L-mFc and HRP-goat-anti-mouse IgG (ECL); both purified
# [4] = target: T1, mouse CD137 extracellular domain with hFc tail (mE-hFc) (mouse) (UniProt P20334); test: as above
# T1 sequence: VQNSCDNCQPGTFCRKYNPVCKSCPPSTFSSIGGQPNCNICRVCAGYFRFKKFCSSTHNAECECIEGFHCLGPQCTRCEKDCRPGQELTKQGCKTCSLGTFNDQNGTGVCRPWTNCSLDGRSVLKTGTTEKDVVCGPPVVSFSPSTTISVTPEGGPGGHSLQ
# [5] = target: T2, mE100 (mouse CD137 CRDIII only, Fc fusion expressed with pCDM-L) (mouse) (UniProt P20334); test: ELISA; mE100 and mE2 coated (also at 5 µg/ml), mCD137L added; OD 450 nm; both purified
# T2 sequence: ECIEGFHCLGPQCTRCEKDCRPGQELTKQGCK
# [6] = target: T3, mE2 (mouse CD137 CRDI, human IgG-Fc fusion protein) (mouse) (UniProt P20334); test: as above
# T3 sequence: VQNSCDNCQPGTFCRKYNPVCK
# [7] = target: T4, mE3 (mouse CD137 CRDI+II, human IgG-Fc fusion protein) (mouse) (UniProt P20334); test: far-Western, overlay or dot blot; mE-hFc and mE3-hFc in loading buffer without 2-ME and not boiled, 10% SDS-PAGE, blotted on nitrocellulose, incubated with 1 µg/ml mCD137L-mFc, goat anti-mouse IgG (ECL); both purified
# T4 sequence: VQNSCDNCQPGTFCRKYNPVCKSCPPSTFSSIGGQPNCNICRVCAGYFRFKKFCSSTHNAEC
# [8] = target: T1, mouse CD137 extracellular domain with hFc tail (mE-hFc) (mouse); test: as above
# [9] = target: T3, mE2 (mouse CD137 CRDI, human IgG-Fc fusion protein) (mouse); test: condition: only proteins boiled and run on SDS-PAGE with 2-ME (reduced); 1 µg/ml mCD137L-mFc; far-Western, overlay or dot blot; purified proteins boiled 5 min in loading buffer with 2-ME, 10% SDS-PAGE, blotted on nitrocellulose, incubated with 1 µg/ml mCD137L-mFc, goat anti-mouse IgG (ECL); both purified
# [10] = target: T4, mE3 (mouse CD137 CRDI+II, human IgG-Fc fusion protein) (mouse); test: as above
# [11] = target: T5, mE4 (mouse CD137 CRDI+II+III, human IgG-Fc fusion protein) (mouse) (UniProt P20334); test: as above
# T5 sequence: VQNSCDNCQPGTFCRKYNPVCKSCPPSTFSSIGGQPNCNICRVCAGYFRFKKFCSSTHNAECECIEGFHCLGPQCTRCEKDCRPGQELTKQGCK
# [12] = target: T1, mouse CD137 extracellular domain with hFc tail (mE-hFc) (mouse); test: as above
# [13] = target: hCD137L-hFc (human CD137L extracellular domain with human IgG-Fc fusion protein) (human) (UniProt P41273); test: ELISA; purified hCD137L-hFc coated at 1 µg/ml; expression supernatants of hE300, hE3003, hE3004 (mFc) added; goat anti-mouse IgG-HRP; only the target purified
# [14] = target: hCD137L-mFc (human CD137L extracellular domain and mouse IgG-Fc fusion protein) (human) (UniProt P41273); test: ELISA; blocking: purified hCD137-hFc (1.0 µg/ml) preincubated overnight at 4°C with anti-human CD137 mAbs or OKT3, added to coated purified hCD137L-mFc (1 µg/ml) for 2 h at 37°C; mouse anti-human Fc-HRP; both purified
substance,measurement,setting,value
"hE3 (human CD137 CRDI+II, hIgG1-Fc fusion protein) (from UniProt Q07011 24-86)",binding,[1],no binding (tested: 10 µg/ml)
same,binding,[2],no binding
hCD137L-mFc (human CD137L extracellular domain and mouse IgG-Fc fusion protein) (from UniProt P41273 50-254),binding,[3],binds
same,binding,[4],binds
mCD137L-mFc (mouse CD137L extracellular domain with mouse IgG-Fc fusion protein) (from UniProt P41274 104-309),binding,[5],no binding (tested: proteins also coated at 5 µg/ml)
same,binding,[6],no binding (tested: proteins also coated at 5 µg/ml)
same,binding,[7],binds
same,binding,[8],binds
same,binding,[9],no binding
same,binding,[10],no binding
same,binding,[11],no binding
same,binding,[12],no binding
"hE3003 (human CD137 single CRDIII, mouse IgG-Fc fusion protein) (from UniProt Q07011 87-118)",binding,[13],no binding
"hE4 (human CD137 CRDI+II+III, human IgG-Fc fusion protein) (from UniProt Q07011 24-118)",binding,[2],binds
"hE2 (human CD137 CRDI, human IgG-Fc fusion protein) (from UniProt Q07011 24-46)",binding,[2],no binding
"hE (full-length human CD137 extracellular domain, human IgG-Fc fusion protein) (from UniProt Q07011 24-186)",binding,[2],binds
same,binding,[14],binds
